Measured values from the antibiotic and cytotoxicity screens of Wong et al. (2023).
This is one part of the list.

Tested on: S. aureus RN4220
Test: growth inhibition call (relative growth <= 0.2)
Conditions: 50 µM

| SMILES | growth inhibition call |
| --- | --- |
| O=C(C[C@H]1C[C@@H]2c3cc(NC(=O)Nc4ccc(C(F)(F)F)cc4)ccc3O[C@@H]2[C@@H](CO)O1)NCCc1ccccc1 | inactive |
| CN(CC(=O)Nc1ccc(F)cc1F)S(=O)(=O)c1ccc2c(c1)c(=O)n(C)c(=O)n2C | inactive |
| O=C(N[C@@H](c1ccc(-c2ccccc2)cc1)c1cnccn1)C1CCN(CCOc2ccc(F)cc2)CC1 | active |
| CCCC#Cc1ccc2c(c1)O[C@@H](CN(C)C(=O)c1cnccn1)[C@H](C)CN([C@@H](C)CO)S2(=O)=O | inactive |
| CC(=O)n1cc([C@@H]2C=C(C(=O)N3CCCCCCC3)O[C@H](OCc3ccc(CO)cc3)C2)c2ccccc21 | inactive |
| COc1ccc(CN(C)C[C@@H]2Oc3c(NC(=O)CCCCCC(=O)Nc4ccccc4N)cccc3C(=O)N([C@H](C)CO)C[C@H]2C)cc1 | inactive |
| C[C@@H]1CN([C@H](C)CO)C(=O)Cc2cc(NC(=O)Nc3ccc(F)cc3)ccc2O[C@@H]1CN(C)C(=O)Nc1cccc2ccccc12 | inactive |
| Cn1c(=O)c2[nH]cnc2n(C)c1=O.NCCN | inactive |
| C[C@@H]1CCCCO[C@H](CN(C)S(=O)(=O)c2ccccc2)[C@H](C)CN([C@H](C)CO)C(=O)c2cc(NC(=O)C3CCCCC3)ccc2O1 | inactive |
| Cc1ccccc1S(=O)(=O)N1C[C@H](O)COC[C@@H]2O[C@@H](CC(=O)N3CCN(C)CC3)CC[C@H]21 | inactive |
| C[C@@H]1CN([C@H](C)CO)C(=O)c2cccc(NC(=O)c3ccc(-c4nccs4)cc3)c2O[C@@H]1CN(C)C(=O)Nc1ccc(F)cc1 | inactive |
